# Test results from the RNAGym collection of RNA variant scans (doi:10.7554/elife.90254).
# The source gives no read counts; variants with many changes may rest on few reads.
# B1: LINE1-full (parent)
# chain: UACGUAGGUGGUUUUCCCCUGAUAGUGCUAAGGGGGCCUGGAAGUUUGGACUGGGCAGAGCUCAACACAGCGUGGCAAAGUGGCUGUGGCUAGACUGCCUCUCUGGAUUCCUCGUCACUCAGCAGGGCAUCUCUGAGAGAAAUGCC
# Variants of: B1
# Assay: self-cleavage, relative activity (ratio to wild type); higher = more cleavage; in vitro, sequencing; the parent is a self-cleaving ribozyme
row,Variant,self-cleavage
1,A77C A140G A141G,1.35
2,U62C A77U A121C,0.02
3,U9A U26A U46C G53A A64G,0.18
4,C18U U20C U130C,1.73
5,U20C A59G A77G A136G,0
6,G8A A65G U96C,0
7,A69U U87C U108C U132C,0
8,U23C A140G G144A,1.51
9,C71U U96C U109C,0.08
10,C3U A31U U73C,0.53
11,C28A U39G A107G U130C,1.27
12,U26A U132C A140G,1.28
13,U62C C66U U87C U109C,0.05
14,U14A U26A U45C,0.55
15,U47A U52C U62C,0
16,U13C G27C A78U U100A A142G,1.55
17,U45A A64U U91C,0.03
18,U13C G32U U39C A43G A92G U108C,0
19,A43G A65G C66U A140G,0.06
20,A22G A138G A141G,0.68
21,A31U G49A A124U,1.24

row,Variant,self-cleavage
1,A2U U12C A78G C116U A142G,1.53
2,U52A A59G A65G,0
3,A31G A59G U100C A136G,0
4,U5A U109A U115C A142G,0.74
5,G33U A57G C101U A117U A124G,0.74
6,U13C U29C U81C C110U A142G,1.84
7,A6G U12G C56U A124G,0.27
8,C66G U115C A129G,0.05
9,U12A A69G U104C A140G,0.63
10,U9C U12C U23A U46A A64G G82A U109C,0.39
11,U91A A94U A136G,0.18
12,U15C U26C U81C A140U,0.8
13,U13C U29C A78G G126A A142G,0.57
14,G4A A24U U81A,2.77
15,U45C U47C A121U U134A,1.6
16,U1C U12G A65U U130C U143C,0.21
17,U62A U81A U104A,0.02
18,U15A U20C U73A G105A C118U U119G,1.59
19,U39C U108A C113U,0.49
20,A50U A59G A77G,0.08
21,U29C A30U G36A A121U A140U,1.1

row,Variant,self-cleavage
1,U12C A42U U47A A141G,1.36
2,A22G C113A A124G U134C,1.24
3,U14C U119A A140G,1.3
4,U15C U23A G41A A92G,0
5,U20C G40A U85C,0.2
6,A69U A79G U119C,0.29
7,U23C A24U U45C A142G,1.43
8,A78G G125U A138U,0.95
9,U13C A64G U119C,0.36
10,A67G U109C C113U,0.41
11,U12A A42U G54C U109C,0.33
12,U52A U73C C123U,2.16
13,C17G G36C A94G,0.32
14,C68A A78G U132C,0
15,A42G U45C A69G U115A,0
16,A57G A64G A79G U87A A141G,0
17,U20A A129C G135A A140G,1.29
18,U15A A64G G82A,0.15
19,G25A A42U A57G C63A A64G,0.02
20,U20C U109A A140G,0.93
21,U14C U29C A31U A94G,0.45

row,Variant,self-cleavage
1,U9C A43U U46C,0.32
2,A57G A65G A77U A138G,0.07
3,U9C U47C U130C,0.72
4,A92G G93A U96A U104A A107G,0.09
5,A59G U62C A78G,0.09
6,U96C A117U A141G,0.12
7,U14G A50U C63U A79G U102G,0.22
8,C19U U46A U73A U112A,0.92
9,U12G A50G G72U A121U U132C A140U,0.73
10,C17U A77U U87A U104A A140U,0.07
11,A57G A64G U143C,0.54
12,U14C A43G U62C,0.12
13,U9A U108C G137U,1.3
14,U14C C19U A79G U96C A129C,0
15,A65G C71U A136C,0.05
16,U47A U85A A138U,0.1
17,U29C U104C U119A U132C,0
18,G21A G35A A67G,0.19
19,A43G U115C A124G U143C,0
20,U20C A92U U104A U115C,0.56
21,A59U U85C U102C U132C,0
